Over roughly 18,000 sequences, “TetR repression strength (sort-seq, GFP reporter)” has its median near 0.23; the highest 2% begin near 0.68. The list shows a part of the results.

Chain of UniProt P04483 (P04483 whole entry): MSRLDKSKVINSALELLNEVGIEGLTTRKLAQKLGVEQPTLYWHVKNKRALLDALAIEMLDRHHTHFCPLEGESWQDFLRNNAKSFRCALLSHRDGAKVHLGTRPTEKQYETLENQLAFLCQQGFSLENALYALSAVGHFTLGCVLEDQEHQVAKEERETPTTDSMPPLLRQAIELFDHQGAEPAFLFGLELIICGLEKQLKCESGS

In the assay the target is TetR (class B, Tn10) (UniProt P04483). Put plainly: TetR repression strength (sort-seq, GFP reporter) (relative to tetO2 = 1); higher = stronger repression. The settings on record: E. coli. In a few lines:
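Repression strength is the top bin index plus one minus the read-weighted mean bin, relative to the unaltered operator's value. A low-copy library in E. coli SIG10-MAX randomized eight operator positions between a constitutive promoter and sfGFP, with TetR expressed constitutively; cells grew 5 h at 37 °C in LB with 50 µg/mL chloramphenicol and 10^6 were FACS-sorted into 13 bins that were each Illumina-sequenced. Three independent transformations were averaged, keeping only members with ≥30 reads in all replicates and CV ≤0.5.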
With TCCCAGAAAGTAACAGAGA, the TetR repression strength was found to be 0.229. The same measure for TCCCGTTCAGTGCTGGAGA: 0.399; for TCCCCTTAAGTGTATGAGA: 0.348; for TCCCATGAAGTAGAGGAGA: 0.188. TCCCATTTAGTCGCTGAGA returned a TetR repression strength of 0.208. The result for TCCCCAAAAGTCCTTGAGA reads 0.326; that for TCCCAGGTAGTACACGAGA, 0.207; that for TCCCTTCAAGTGGGCGAGA, 0.255. The result for TCCCGTCAAGTGGGAGAGA reads 0.0979. The result for TCCCGCGGAGTGGCGGAGA reads 0.119; that for TCCCAAGCAGTGATAGAGA, 0.505; that for TCCCGGAAAGTCTCCGAGA, 0.234. The sequence TCCCTCTGAGTGGGCGAGA showed a TetR repression strength of 0.204. The result for TCCCGCGTAGTTACCGAGA reads 0.161. For the sequence TCCCTGGGAGTGTTAGAGA, the TetR repression strength turned out to be 0.0903. TCCCCTACAGTCGAGGAGA displayed a TetR repression strength of 0.107.

TCCCACCTAGTATGCGAGA came in with a TetR repression strength of 0.418. The same measure for TCCCGTCGAGTCGTGGAGA: 0.511; for TCCCCGTGAGTAACAGAGA: 0.289; for TCCCCTTCAGTTGGTGAGA: 0.183. Regarding TCCCGGCCAGTGGGCGAGA, the TetR repression strength turned out to be 0.251. In the case of TCCCAGGTAGTGTAGGAGA, the TetR repression strength was 0.125.

In turn, TCCCTTTAAGTGCTGGAGA registered a TetR repression strength of 0.3. The sequence TCCCGTGAAGTCACCGAGA yielded a TetR repression strength of 0.165.

Sequence TCCCTCGGAGTTGAGGAGA had a TetR repression strength of 0.0418.

On to TCCCGGGCAGTCGGCGAGA, for which the TetR repression strength worked out at 0.457. The same measure for TCCCCGCCAGTGGGGGAGA: 0.171; for TCCCGCGCAGTAATAGAGA: 0.426; for TCCCTCAGAGTACGGGAGA: 0.00576.

In the case of TCCCCCTGAGTCGGGGAGA, the TetR repression strength turned out to be 0.297. Turning to TCCCCGTGAGTAAACGAGA, the TetR repression strength is 0.248. Consider TCCCGTAGAGTGTGAGAGA, for which the TetR repression strength was 0.258. The same measure for TCCCACGCAGTGACAGAGA: 0.323. The result for TCCCCTGCAGTGGCTGAGA reads 0.205; that for TCCCGTTGAGTTGTCGAGA, 0.0242.

For TCCCCCATAGTTCAAGAGA, the TetR repression strength was 0.501.

Take TCCCGGGGAGTGCGCGAGA: the TetR repression strength was determined as 0.123. The same measure for TCCCGATAAGTACTTGAGA: 0.405; for TCCCACTGAGTGGCGGAGA: 0.111. The result for TCCCTAACAGTAACGGAGA reads 0.179. The result for TCCCAGTCAGTACTGGAGA reads 0.126; that for TCCCTTGTAGTGTGCGAGA, 0.211; that for TCCCAGTTAGTACAAGAGA, 0.512. TCCCTCCAAGTCGAGGAGA came in with a TetR repression strength of 0.104. TCCCGTGGAGTGTTCGAGA: the TetR repression strength came out at 0.914.

TCCCCGTGAGTGACGGAGA returned a TetR repression strength of 0.211. The same measure for TCCCGCGAAGTGTGTGAGA: 0.233. In turn, TCCCAAGCAGTGGTTGAGA yielded a TetR repression strength of 0.189. The same measure for TCCCTAGGAGTTCAAGAGA: 0.22; for TCCCTGACAGTGGCTGAGA: 0.199. The result for TCCCGAACAGTGGGTGAGA reads 0.949; that for TCCCTGGGAGTGAATGAGA, 0.189; that for TCCCGCGGAGTCATTGAGA, 0.403. The same measure for TCCCTACGAGTGGCCGAGA: 0.256; for TCCCAATTAGTGGGGGAGA: 0.0942.

TCCCGAAAAGTATTTGAGA came in with a TetR repression strength of 0.171. The sequence TCCCCTTAAGTGAGAGAGA returned a TetR repression strength of 0.251.

The sequence TCCCATTTAGTGCGAGAGA had a TetR repression strength of 0.279. The result for TCCCGGCGAGTGGGAGAGA reads 0.252; that for TCCCGGAAAGTAGCAGAGA, 0.0718. TCCCGGGGAGTTCGGGAGA gave a TetR repression strength of 0.307. The result for TCCCGCCTAGTGGCGGAGA reads 0.306. As for TCCCAACAAGTTCGTGAGA, the TetR repression strength stood at 0.33. As for TCCCGTGGAGTGGACGAGA, the TetR repression strength was determined as 0.105.

As for TCCCAGATAGTAAACGAGA, the TetR repression strength came out at 0.404. Turning to TCCCGTGAAGTCAGAGAGA, the TetR repression strength was determined as 0.266. The sequence TCCCGTCGAGTGCATGAGA displayed a TetR repression strength of 0.196. TCCCAGCAAGTTGTGGAGA: the TetR repression strength stood at 0.222. On to TCCCGGCAAGTCAGCGAGA, for which the TetR repression strength worked out at 0.0946. Regarding TCCCGATAAGTACGTGAGA, the TetR repression strength turned out to be 0.107. Consider TCCCGTGCAGTGCCCGAGA, for which the TetR repression strength came out at 0.361. In turn, TCCCCGTGAGTGGCGGAGA showed a TetR repression strength of 0.0581. The same measure for TCCCACGGAGTTGGCGAGA: 0.123. The result for TCCCCCTGAGTTATCGAGA reads 0.168; that for TCCCTTCGAGTCGTTGAGA, 0.352.

For TCCCCGTGAGTGTATGAGA, the TetR repression strength came out at 0.189. TCCCGCGGAGTTTGAGAGA displayed a TetR repression strength of 0.245. The same measure for TCCCTTGGAGTATTCGAGA: 0.162; for TCCCTTTGAGTAAAAGAGA: 0.232; for TCCCGTTTAGTGTTCGAGA: 0.114. As to TCCCGGGTAGTAAGCGAGA, the TetR repression strength was 0.403.

The sequence TCCCTAGAAGTTATCGAGA registered a TetR repression strength of 0.275. On to TCCCAGCTAGTGAAGGAGA, for which the TetR repression strength is 0.64. The result for TCCCTGGGAGTAGACGAGA reads 0.144.

On to TCCCGCGGAGTTTCCGAGA, for which the TetR repression strength came out at 0.449. Regarding TCCCTAAGAGTGAAGGAGA, the TetR repression strength turned out to be 0.434.

TCCCGCGCAGTGAGGGAGA: the TetR repression strength came to 0.216. The result for TCCCGGCCAGTCTGTGAGA reads 0.102; that for TCCCTTGGAGTCAATGAGA, 0.337; that for TCCCTGCAAGTACGTGAGA, 0.236. The sequence TCCCTATCAGTGAACGAGA registered a TetR repression strength of 0.862. On to TCCCATCAAGTAAGTGAGA, for which the TetR repression strength worked out at 0.242. Take TCCCATAGAGTGATAGAGA: the TetR repression strength came to 0.438. The result for TCCCTAAGAGTCGGCGAGA reads 0.215; that for TCCCAGATAGTACGAGAGA, 0.165; that for TCCCTTATAGTGCCTGAGA, 0.162. The result for TCCCGGGGAGTCCAAGAGA reads 0.195. The result for TCCCTGCTAGTCTGCGAGA reads 0.116; that for TCCCGCGGAGTCACGGAGA, 0.396. TCCCGGAAAGTGGTTGAGA gave a TetR repression strength of 0.142.

As to TCCCGCGGAGTCGGTGAGA, the TetR repression strength came to 0.186. Take TCCCGGGTAGTGATTGAGA: the TetR repression strength was 0.312.

For the origin of these results see a collection of fitness landscapes (doi:10.1038/s41467-024-54723-y).
